Laboratory results taken from PubChem BioAssay AID1347073 (National Center for Advancing Translational Sciences (NCATS), 2019).
Hit rate of the full screen: of about 45,000 compounds, about 200 (0.44%) were called active. Inconclusive results (about 7%) are left out. The call rests on the fitted dose curve; in most records, active means well fitted activation curve with a large enough effect; inconclusive means small, poorly fitted or top-dose-only effect; inactive means no such curve, though single readings can be large or run the other way. The list shows a part of the results.

Test: qHTS of TDP-43 Inhibitors: NCGC Sytravon Library Screen; further: 0% is about no effect; nearly all actives have a fitted effect of over 55% in size
Conditions: yeast TDP-43 toxicity rescue, BacTiter-Glo growth, 24 h; series mostly up to 46.1 µM; growth rescue (activation): at the top concentration
Outline: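 TDP-43-expressing yeast, pregrown in raffinose, seeded at OD600 0.02 in galactose medium with compound for 24 hr at 30 deg C. Growth read by BacTiter-Glo luminescence, so rescue of toxicity appears as activation.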

Compound | growth rescue (activation)
Cc1ccc(NC(=O)C2C3/C=C\CCCCC32)cc1 (centres undefined) | inactive: 4.61%
c1ccc(C2=Nn3c(nnc3-c3ccncc3)SC2)cc1 | inactive: 19.4%
CC(Oc1ccccc1)C(=O)Nc1ccc(S(=O)(=O)N2CCCC2)cc1 (centres undefined) | inactive: 9.31%
Cc1cccc2cc(C#N)c(SCc3nnc(-c4ccccc4[N+](=O)[O-])o3)nc12 | inactive: -2.4%
CC1(Cc2ccc(C(F)(F)F)nc2)C(=O)Nc2cc(-c3ccccc3Cl)ccc21 (centres undefined) | inactive: -3.08%
CC1(C)CC(=O)C(C(=S)Nc2ccc(F)cc2)=C(NCCN2CCOCC2)C1 | inactive: 0.0006%
O=C(COC(=O)Cc1ccccc1F)NCc1ccc(Cl)cc1 | inactive: 14.7%
CCOc1ccc(NS(=O)(=O)c2cc(C)c(C)cc2C)cc1 | inactive: 24.2%
CCCN(CC(=O)Nc1ccc(NC(C)=O)cc1)CC(=O)Nc1ccc(F)c(F)c1F | inactive: 6.28%
O=C(COC(=O)Cc1ccsc1)Nc1ccccc1 | inactive: 13.1%
CCOC(=O)c1ccccc1NC(=S)N1CCN(C(=O)c2ccco2)CC1 | inactive: 22.1%
COC(=O)[C@H](Cc1ccccc1)NC(=O)N1CCCCC1 | inactive: 8.03%
O=C(Nc1ccc(F)c([N+](=O)[O-])c1)C1CC(=O)N(Cc2ccccc2)C1 (centres undefined) | inactive: 3.11%
COc1ccc(OC(C)C(=O)NCCc2nc3ccccc3[nH]2)cc1 (centres undefined) | inactive: 8.52%
COc1ccc(S(=O)(=O)N2CCNCC2)cc1 | inactive: 9.56%
Cc1ccc(-c2ccc(/C=N/NC(=O)CN3CCOCC3)o2)cc1[N+](=O)[O-] | inactive: 14.8%
CCN1CCN(C(=O)CN2C(=O)COc3ccc(C)cc32)CC1 | inactive: -7.78%
O=C(COC(=O)c1ccc(Cl)nc1)NCCc1ccc(Cl)cc1 | inactive: 12.6%
CC(=O)NC(c1cccc(F)c1)c1nc(/C=C/c2ccccc2)cs1 (centres undefined) | inactive: -5.64%
OC1(c2cccc(C(F)(F)F)c2)CCN(Cc2nnnn2Cc2ccccc2)CC1 | inactive: 0.872%
CCOc1nc(-c2ccccc2)ccc1-c1noc(COc2ccccc2)n1 | inactive: 24.6%
COc1ccc(C2=NN(C(=O)CSc3nnc(C)n3C)C(c3ccco3)C2)cc1 (centres undefined) | inactive: 9.53%
COc1cc(CCC(=O)OCC(=O)NC(=O)c2ccc(Cl)cc2)cc(OC)c1OC | inactive: 15.5%

Compound | growth rescue (activation)
Oc1nc(Nc2ccc(Cl)cc2Cl)sc1/C=C1\C=Nc2ccccc21 | inactive: 15.1%
Cc1cccc(NC(=O)c2sc3nc(N)c(C#N)cc3c2N)c1 | inactive: -2.44%
COc1ccc(OC)c(C(=O)CSc2nnc(Cc3cccs3)n2C)c1 | inactive: -8.66%
COc1ccc(C2SCC(=O)N2c2c(C)n(C)n(-c3ccccc3)c2=O)cc1 (centres undefined) | inactive: -29.1%
CN1CCN(C(=S)NC(=O)c2cccc(S(=O)(=O)N(C)C)c2)CC1 | inactive: 8.39%
O=C(CC1C(=O)NCCN1Cc1ccc(-c2ccccc2)cc1)NCCc1ccccn1 (centres undefined) | inactive: 5.52%
Cc1sc(NC(=O)c2ccco2)c(CN2CCN(Cc3ccccc3)CC2)c1C | inactive: 0.437%
CC(C)NC(=O)C1(C)CCN1C(=O)c1ccccc1Oc1ccccc1 (centres undefined) | inactive: 10.6%
COc1ccc(CC(=O)Nc2cccc(C(=O)Nc3ccccc3C(=O)O)c2)cc1OC | inactive: 5.53%
CCCCN(C)c1c(C)nc2ccc(C(=O)Nc3ccc(OC)c(OC)c3)cn12 | inactive: -1.01%
Cc1cc(Cl)ccc1-c1nc(NCCN(C)C)nc2ccsc12 | inactive: 3.68%
Cc1c(NC(=O)c2cn3ccccc3n2)cccc1-n1cnnn1 | inactive: -8.7%
COc1ccc(S(=O)(=O)N2CCCCCC2)cc1NC(=O)CN1C(=O)CNC1=O | inactive: 9.68%
Cn1c(N)c(N2CCN(c3ccccc3)CC2)c(=O)[nH]c1=O | inactive: -14.6%
O=C(Cc1ccccc1)NNC(=O)C1CCN(c2ncccn2)CC1 | inactive: 3.44%
O=C(Nn1c(-c2ccccc2)nc2ccccc2c1=O)c1ccc([N+](=O)[O-])cc1 | inactive: 3.05%
Cc1ccccc1/C=N/Nc1ccc(Cl)nn1 | inactive: 5.84%
CC1(C)c2ccccc2N(CC(N)=O)C12C=Cc1ccccc1O2 (centres undefined) | inactive: 8.66%
COc1ccccc1C(=O)N/C(=C\c1ccccc1)C(=O)NC(C)C(=O)O (centres undefined) | inactive: 11.9%
CC(=O)N1CCCC1(C(=O)O)c1ccccc1 (centres undefined) | inactive: 24.4%
CCCCCCC(O)(CCN1CCCCC1)c1ccccc1 (centres undefined) | inactive: -2.45%
S=c1[nH]ccn1CCc1ccccc1 | inactive: 10.9%
Cc1ccc(S(=O)(=O)NCC2CCCO2)cc1[N+](=O)[O-] (centres undefined) | inactive: 3.65%

Compound | growth rescue (activation)
Brc1ccc(C2=Nc3ccccc3C(c3ccncc3)=NN2)cc1 | inactive: 1.55%
COC(=O)C(NS(=O)(=O)c1ccccc1Cl)c1ccccc1 (centres undefined) | inactive: 4.6%
O=C(CSc1nnnn1C1CCCC1)NCc1cccs1 | inactive: -17.9%
COC(=O)c1ccc(CNC(=O)c2c3c(nc4ccccc24)CCN(Cc2ccccc2)C3)cc1 | inactive: -10.4%
CC(C)C12CN3CC(C(C)C)(CN(C1)C3c1ccc([N+](=O)[O-])o1)C2=O (centres undefined) | inactive: 33.7%
COc1ccc(C2=NN(C(=O)CSc3ncccn3)C(c3cccc(OC)c3OC)C2)cc1 (centres undefined) | inactive: 6.26%
COc1ccccc1N(C)S(=O)(=O)c1ccc(C(=O)Nc2ccc3nc(C)sc3c2)cc1 | inactive: 40.2%
COc1ccccc1NC(=O)c1ccc(-n2cncn2)nc1 | inactive: 12.9%
COc1ccc(OCC2CNC(=O)O2)cc1 (centres undefined) | inactive: -21%
CCCCNC(=O)C1(C)CCN1C(=O)c1ccc2c(c1)CCO2 (centres undefined) | inactive: -0.771%
CCOc1ccc(S(=O)(=O)N2CCCC(C(=O)NCc3cccnc3)C2)cc1C (centres undefined) | inactive: 15.9%
COc1ccc(OC)c(-n2nnc(-c3nc(-c4cc(OC)c(OC)c(OC)c4)no3)c2C)c1 | inactive: 0.711%
CCC(=O)Nc1ccc(Nc2nc(Cl)nc(Nc3ccc(NC(=O)CC)cc3)n2)cc1 | inactive: 3.85%
Cc1cccc(OCCCC(=O)NCC(=O)Nc2cccc(C)c2C)c1 | inactive: 0.957%
O=C(CNC(=O)c1ccc2ccccc2c1)NC1CCCCC1 | inactive: 22.5%
CCC(CC)c1nnc(NC(=O)[C@@H](NC(=O)c2cccc(C)c2)C(C)C)s1 | inactive: 11.4%
O=C(CCN1C(=O)c2ccccc2C1=O)Nc1sc2c(c1C(=O)NCC1CCCO1)CCC2 (centres undefined) | inactive: 24%
CC(=O)Nc1ccc(-c2csc(NC(=O)CC(NC(C)=O)c3ccccc3)n2)cc1 (centres undefined) | inactive: 5.98%
CC(=O)c1c(C)oc2c1cc(NS(=O)(=O)c1ccc(C(=O)O)cc1)c1ccccc12 | inactive: -26.5%
O=S(=O)(c1ccc(F)cc1)N1CCN(CC(O)COCC2CCCO2)CC1 (centres undefined) | inactive: 9.17%
Cc1cc(C(=O)N2CCC2(C)C(=O)NS(=O)(=O)c2ccccc2Cl)nn1C (centres undefined) | inactive: -11.6%
Cc1oc(-c2cccs2)nc1CN1CCC(CO)(CCOc2ccccc2)CC1 | inactive: -9.34%
CC(C)Cc1nc2sc3c(c2c(=O)n1N)CC(C)(C)OC3 | inactive: 12.1%
